T1: human CEACAM5 expressed on MKN-45 wt cells (human, UniProt P06731 35-702)
T1 construct: MKN-45 cells also express CD47 and CEACAM6; also called CEACAM5 on MKN45
T1 sequence: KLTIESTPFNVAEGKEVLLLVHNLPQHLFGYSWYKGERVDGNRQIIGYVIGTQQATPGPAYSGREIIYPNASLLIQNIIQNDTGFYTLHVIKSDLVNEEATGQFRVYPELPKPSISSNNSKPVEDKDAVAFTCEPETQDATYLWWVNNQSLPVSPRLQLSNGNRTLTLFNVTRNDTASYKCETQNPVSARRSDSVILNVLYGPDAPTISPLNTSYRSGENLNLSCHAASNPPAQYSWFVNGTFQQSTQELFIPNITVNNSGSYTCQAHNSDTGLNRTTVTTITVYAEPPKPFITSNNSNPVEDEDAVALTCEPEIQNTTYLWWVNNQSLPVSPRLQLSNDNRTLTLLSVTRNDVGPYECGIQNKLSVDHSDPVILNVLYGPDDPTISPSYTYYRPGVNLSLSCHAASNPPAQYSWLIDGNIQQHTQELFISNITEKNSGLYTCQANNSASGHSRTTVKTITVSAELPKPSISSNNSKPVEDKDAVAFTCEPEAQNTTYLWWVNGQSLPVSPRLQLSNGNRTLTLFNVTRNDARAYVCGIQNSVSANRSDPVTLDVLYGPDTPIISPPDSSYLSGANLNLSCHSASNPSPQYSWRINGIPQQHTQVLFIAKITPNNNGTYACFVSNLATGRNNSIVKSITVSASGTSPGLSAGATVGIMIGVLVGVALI


Legend:
[1] = biological target: T1, human CEACAM5 expressed on MKN-45 wt …; assay: flow cytometry on MKN-45 wt cells (express CEACAM5 and CD47)
[2] = biological target: T2, human CD47 expressed at the surface of MKN45 cells (human, UniProt Q08722); assay: inhibition of SIRPα mouseFc binding to CD47 on MKN45 cells; imaging (CX5)
T2 construct: whole, on cells; also called IAP
T2 sequence (Q08722 19-323): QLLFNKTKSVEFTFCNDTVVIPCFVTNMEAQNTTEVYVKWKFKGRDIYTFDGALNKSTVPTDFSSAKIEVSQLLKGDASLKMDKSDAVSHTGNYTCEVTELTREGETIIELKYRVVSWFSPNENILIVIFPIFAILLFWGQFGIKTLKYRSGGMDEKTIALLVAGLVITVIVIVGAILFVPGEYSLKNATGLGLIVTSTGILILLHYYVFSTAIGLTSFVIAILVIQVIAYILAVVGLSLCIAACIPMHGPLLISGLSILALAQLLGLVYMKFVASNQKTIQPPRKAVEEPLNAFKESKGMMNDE

Binder	EC50 [1] [nM]	Emax (MFI) [1] [MFI]	IC50 [2] [nM]
K2AC45 (bispecific antibody, human IgG1, kappa, lambda, 6 is full length) heavy: [here about 120 residues without letters][here about 100 residues without letters][here human IgG1 Fc without letters] light 1: QSVLTQPPSASGTPGQRVTISCSGSSSNIVGVGVNWYQQLPGTAPKLLIYSYNKRPSGVPDRFSGSKSGTSASLAISGLQSEDEADYYCAAYDADMIVPAPVFGGGTKLTVLGQPKAAPSVTLFPPSSEELQANKATLVCLISDFYPGAVTVAWKADSSPVKAGVETTTPSKQSNNKYAASSYLSLTPEQWKSHRSYSCQVTHEGSTVEKTVAPTECS light 2: DIQMTQSPSSLSASVGDRVTITCRASQSISSYLNWYQQKPGKAPKLLIYAASSLQSGVPSRFSGSGSGTDFTLTISSLQPEDFATYYCQQMHPRAPKTFGQGTKVEIKRTVAAPSVFIFPPSDEQLKSGTASVVCLLNNFYPREAKVQWKVDNALQSGNSQESVTEQDSKDSTYSLSSTLTLSKADYEKHKVYACEVTHQGLSSPVTKSFNRGEC	256	1.65e+06	–
K2AC48 (bispecific antibody, human IgG1, kappa, lambda, 6 is full length) heavy: [here about 120 residues without letters][here about 100 residues without letters][here human IgG1 Fc without letters] light 1: QSVLTQPPSASGTPGQRVTISCSGSSSNINGVGVNWYQQLPGTAPKLLIYEFNKRPSGVPDRFSGSKSGTSASLAISGLQSEDEADYYCAAYDAARYVPAPVFGGGTKLTVLGQPKAAPSVTLFPPSSEELQANKATLVCLISDFYPGAVTVAWKADSSPVKAGVETTTPSKQSNNKYAASSYLSLTPEQWKSHRSYSCQVTHEGSTVEKTVAPTECS light 2: DIQMTQSPSSLSASVGDRVTITCRASQSISSYLNWYQQKPGKAPKLLIYAASSLQSGVPSRFSGSGSGTDFTLTISSLQPEDFATYYCQQMHPRAPKTFGQGTKVEIKRTVAAPSVFIFPPSDEQLKSGTASVVCLLNNFYPREAKVQWKVDNALQSGNSQESVTEQDSKDSTYSLSSTLTLSKADYEKHKVYACEVTHQGLSSPVTKSFNRGEC	201	2.19e+06	4.4
K2AC46 (bispecific antibody, human IgG1, kappa, lambda, 6 is full length) heavy: [here about 120 residues without letters][here about 100 residues without letters][here human IgG1 Fc without letters] light 1: QSVLTQPPSASGTPGQRVTISCSGSSSNIVGVGVNWYQQLPGTAPKLLIYSYNKRPSGVPDRFSGSKSGTSASLAISGLQSEDEADYYCAAYDFSLLLPAPVFGGGTKLTVLGQPKAAPSVTLFPPSSEELQANKATLVCLISDFYPGAVTVAWKADSSPVKAGVETTTPSKQSNNKYAASSYLSLTPEQWKSHRSYSCQVTHEGSTVEKTVAPTECS light 2: DIQMTQSPSSLSASVGDRVTITCRASQSISSYLNWYQQKPGKAPKLLIYAASSLQSGVPSRFSGSGSGTDFTLTISSLQPEDFATYYCQQMHPRAPKTFGQGTKVEIKRTVAAPSVFIFPPSDEQLKSGTASVVCLLNNFYPREAKVQWKVDNALQSGNSQESVTEQDSKDSTYSLSSTLTLSKADYEKHKVYACEVTHQGLSSPVTKSFNRGEC	243	1.14e+06	7.9

These reach a lower EC50 [1]. Values come first.

EC50 [1] [nM]	Emax (MFI) [1] [MFI]	IC50 [2] [nM]	Binder
140	1.62e+06	3.3	K2AC44 (bispecific antibody, human IgG1, kappa, lambda, 6 is full length) heavy: [here about 120 residues without letters][here about 100 residues without letters][here human IgG1 Fc without letters] light 1: QSVLTQPPSASGTPGQRVTISCSGSSSNIVGVGVNWYQQLPGTAPKLLIYSYNKRPSGVPDRFSGSKSGTSASLAISGLQSEDEADYYCAAYDFLPVLPAPVFGGGTKLTVLGQPKAAPSVTLFPPSSEELQANKATLVCLISDFYPGAVTVAWKADSSPVKAGVETTTPSKQSNNKYAASSYLSLTPEQWKSHRSYSCQVTHEGSTVEKTVAPTECS light 2: DIQMTQSPSSLSASVGDRVTITCRASQSISSYLNWYQQKPGKAPKLLIYAASSLQSGVPSRFSGSGSGTDFTLTISSLQPEDFATYYCQQMHPRAPKTFGQGTKVEIKRTVAAPSVFIFPPSDEQLKSGTASVVCLLNNFYPREAKVQWKVDNALQSGNSQESVTEQDSKDSTYSLSSTLTLSKADYEKHKVYACEVTHQGLSSPVTKSFNRGEC
11	2.27e+06	–	K2AC47 (bispecific antibody, human IgG1, kappa, lambda, 6 is full length) heavy: [here about 120 residues without letters][here about 100 residues without letters][here human IgG1 Fc without letters] light 1: QSVLTQPPSASGTPGQRVTISCSGSSSNINGVGVNWYQQLPGTAPKLLIYGFNSRPSGVPDRFSGSKSGTSASLAISGLQSEDEADYYCAAYDMSTYVPAPVFGGGTKLTVLGQPKAAPSVTLFPPSSEELQANKATLVCLISDFYPGAVTVAWKADSSPVKAGVETTTPSKQSNNKYAASSYLSLTPEQWKSHRSYSCQVTHEGSTVEKTVAPTECS light 2: DIQMTQSPSSLSASVGDRVTITCRASQSISSYLNWYQQKPGKAPKLLIYAASSLQSGVPSRFSGSGSGTDFTLTISSLQPEDFATYYCQQMHPRAPKTFGQGTKVEIKRTVAAPSVFIFPPSDEQLKSGTASVVCLLNNFYPREAKVQWKVDNALQSGNSQESVTEQDSKDSTYSLSSTLTLSKADYEKHKVYACEVTHQGLSSPVTKSFNRGEC

— patent publication EP3831849A1 (LamKap Bio beta AG, dated 2021)
